Source: PubChem BioAssay AID2546 (National Center for Advancing Translational Sciences (NCATS), 2010)
Screen size: about 310,000 compounds; about 11,000 (3.5%) were called active. Inconclusive results, whose numbers are uncertain, are shown with a selection of clear calls. Calls follow the shape of the dose curve; as a rule, active = well fitted inhibition curve with a large enough effect; inconclusive = small, poorly fitted or top-dose-only effect, or effect the other way; inactive = flat fitted curve, though single readings scatter. No potency is given beside an inconclusive call; the fits are too rough.

Assay: VP16 counterscreen qHTS for inhibitors of ROR gamma transcriptional activity;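 also: Gal4-VP16 expression switched on by copper sulfate through the metallothionein promoter; nearly all actives have a fitted effect of over 50% in size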
Conditions: Drosophila S2 Gal4-VP16 UAS-luciferase, luminescence, 20 h; series mostly up to 53.6 µM
Potency is read from the fitted curve at half-maximal effect; tags tell the direction and shape of the fitted curve.

| Compound | Potency |
| --- | --- |
| Cc1ccccc1OCCCCN1CCCCC1 | inactive |
| O=C(CCC(=O)N/N=C/c1cc(Cl)cc(Cl)c1O)NCc1ccccc1 | inconclusive [inhibitor, partial curve] |
| O=C(O)CSc1cc(C(=O)c2ccccc2O)cn2c(=O)c3c(-c4ccccc4)csc3nc12 | inactive |
| Cc1noc(C)c1CN1C(=O)NC2(CCCCCCC2)C1=O | inconclusive [inhibitor, partial curve, poor fit] |
| CCCn1c(C)cc(C(=O)COc2ncnc3sccc23)c1C | inactive |
| O=C(N/N=C/c1ccc2c(c1)OCO2)c1ccc(Br)o1 | inconclusive [inhibitor, single point] |
| O=C(CSC1=Nc2ccccc2C2CC=NN12)Nc1ccc(F)cc1Cl (stereo not drawn) | inactive |
| O=S(Cc1ccc(Br)cc1)Cc1nnc(SCc2c(Cl)cccc2Cl)n1-c1ccccc1 (stereo not drawn) | inconclusive [inhibitor, single point] |
| CN=c1scc(-c2ccco2)n1/N=C/c1ccc(O)c(O)c1 | active: 0.708 µM |
| CCc1ccc2[nH]c(=O)c(CN(CCN(CC)CC)C(=S)NCc3ccco3)cc2c1 | inconclusive [inhibitor, single point] |
| OCCNc1nc(-c2ccccc2)c2ccccc2n1 | inactive |
| CC(C)(C)C(=O)Nc1ccc(NC(=O)c2ccco2)nc1 | active: 0.562 µM |
| Cc1ccc(S(=O)(=O)N(CC(=O)N/N=C/c2ccco2)c2cc(Cl)cc(Cl)c2)cc1 | inconclusive [inhibitor, single point] |
| CC1(C)[C@H]2CC=C(CN3CCC(N4CCC(C(=O)N5CCCC5)CC4)CC3)[C@@H]1C2 | inactive |
| O=C1NN=C(c2ccccc2)CC1c1c[nH]c2ccccc12 (stereo not drawn) | inconclusive [activator, partial curve, poor fit] |
| CN(CC1CCCO1)S(=O)(=O)c1ccc(C(=O)Nc2nc(-c3ccccn3)cs2)cc1 (stereo not drawn) | active: 11.2 µM |
| C[Si](C)(C)C#Cc1ccccc1NC(=S)Nc1ccccc1 | inconclusive [inhibitor, partial curve] |
| Cc1cc(C(=O)N(C)CC(=O)Nc2ccccc2C(F)(F)F)c(C)o1 | inconclusive [inhibitor, single point] |
| CCC(CC)(CC(=O)Nc1cccc(/C=C/c2nc(C3CCC3)cs2)c1)C(=O)O | inconclusive [inhibitor, single point] |
| Cc1nnc(NC(=O)CSc2nnc(-c3ccco3)o2)s1 | active: 5.01 µM |
| CCOc1ccc(NC(=S)NC(=O)Cc2ccccc2)cc1 | active: 10 µM |
| COc1ccc(-c2nc(C)c(C(C)=O)n2O)cc1 | inactive |
| Oc1cccc(/C=N/N=C/c2cccc(O)c2O)c1O | inconclusive [inhibitor, single point] |
| NC(=S)Cc1nc(-c2ccc(Cl)cc2)cs1 | inconclusive [inhibitor, partial curve] |

| Compound | Potency |
| --- | --- |
| CS(=O)(=O)N(CC(=O)Nc1ccc(Br)cc1F)C1CCCCC1 | inactive |
| CCc1cc(C(=O)c2ccc(Br)cc2)c(NC(=O)CN(CC)CC)s1 | active: 11.2 µM |
| Cc1ccn(CCC(=O)NC2CCCc3c2cnn3-c2cccc(C)c2C)n1 (stereo not drawn) | inconclusive [inhibitor, single point] |
| O=C(CNC(=O)c1ccccc1Br)N/N=C/c1cc(Br)ccc1O | active: 5.01 µM |
| CC(=O)c1sc(Nc2cccc(C)c2)nc1C | inconclusive [activator, single point] |
| CCCOc1ccc2cc(C(=O)NCc3ccccc3)c(=O)oc2c1 | inactive |
| COc1cccc(CN=c2c([N+](=O)[O-])nn(-c3ccccc3C)n2O)c1 | inactive |
| CC(C)N1C/C(=C/c2cccnc2)C(=O)/C(=C/c2cccnc2)C1 | inconclusive [inhibitor, single point] |
| CCOC(=O)c1csc(NC(=O)C2CCCCC2)n1 | inconclusive [activator, partial curve] |
| COc1ccc2c(c1)O[C@@H](c1cccc(C(F)(F)F)c1)[C@H](OC(=O)Nc1ccc(OC(F)F)cc1)C2=O | inactive |
| C/C(O)=C/c1nc2ccccc2[nH]c1=O | inconclusive [activator, single point] |
| CCC1(C)Cc2c(sc3c2c(=O)n(-c2ccccc2)c(=O)n3C)CO1 (stereo not drawn) | inactive |
| Cc1ccc(NC(=O)c2ccc(NCCCN3CCC(C)CC3)c([N+](=O)[O-])c2)cc1F | inconclusive [inhibitor, single point] |
| COc1ccc2c(c1OC)C(=O)N1c3ccccc3SC21 (stereo not drawn) | inconclusive [inhibitor, single point] |
| CCN1CSC(=S)N(Cc2ccc(OC)cc2)C1 | active: 12.6 µM |
| CC(C)(C)C(=O)Nc1ccc(-c2cn3ccsc3n2)cc1 | active: 4.47 µM |
| Cc1ccc(S(=O)(=O)Nc2ccc3nc(C)sc3c2)cc1 | inconclusive [inhibitor, single point] |
| CC(=O)c1cccc(NC(=O)Nc2ccc(C(=O)N3CCOCC3)cc2)c1 | inconclusive [inhibitor, single point] |
| O=C(CCC(=O)c1ccc(Oc2ccccc2)cc1)Nc1ccc(Cl)cc1Cl | inactive |
| CCn1cc(C(=O)NC(=S)Nc2ccccc2[N+](=O)[O-])cn1 | inconclusive [inhibitor, single point] |
| O=C(NCCCCc1ccccc1)c1ccc(Br)o1 | inconclusive [inhibitor, single point] |
| CC(C)(C)OC(=O)[C@H](Cc1ccccc1)NC(=O)c1[nH]cnc1C(=O)Nc1cccc(Cl)c1 | active: 3.98 µM |
| Cc1ccc(NCC(=O)Nc2cccc(S(=O)(=O)N(C)C)c2)c(Cl)c1 | inconclusive [activator, partial curve, poor fit] |
| COc1ccccc1Cn1c(=S)[nH]c2cc(C(=O)N3CCCC3)ccc2c1=O | inconclusive [inhibitor, single point] |
